According to the RNAGym collection of RNA variant scans (doi:10.1073/pnas.2313332121):
This sample is rich in variants without activity.

B1: TPR 5TU (parent)
chain: GGAUCUUCUCGAUCUAACAAAAAAGACAAAUCUGCCACAAAGCUUGAGAGCAUCUUCGGAUGCAGAGGCGGCAGCCUUCGGUGGCGCGAUAGCGCCAACGUUCUCAACUAUGACACGCAAAACGCGUGCUCCGUUGAAUGGAGUUUAUCAUG

Variants of: B1
Experiment: polymerase ribozyme fitness, log enrichment relative to wild type (log ratio); higher = more active; in vitro selection for triplet polymerase activity
How it was run: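 Input and output libraries were sequenced on Illumina after a single in vitro selection round, run in triplicate on PCR-built, transcribed mutant libraries of each subunit of a heterodimeric triplet polymerase ribozyme. Selection annealed libraries to a biotinylated primer, the partner subunit and triplets, incubated them frozen at −7 °C, then gel-excised extended constructs for streptavidin-bead capture and RT-PCR. Genotypes with ≥10 input reads and ≥1 read per output were kept. Fitness is the logarithm, taken in base 2, of genotype enrichment divided by wild-type enrichment, using inverse-variance-weighted replicate averages.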

Row | Variant | polymerase ribozyme fitness (log ratio)
1 | A60G U61A A97G | -1.38
2 | A60G U77G C87U | ≤ -4.2
3 | A60G U102G A150G | ≤ -4.2
4 | A60G U104G G136U U144C | -3.29
5 | A60U A64C A89U C116G G133C A147C U148C | ≤ -4.2
6 | A60U A73G G92A C96G A115G U144G | ≤ -4.2
7 | A60U A91G | ≤ -4.2
8 | A60U A97G C103A A115U G152A | ≤ -4.2
9 | A60U C63A C79G C96U A122U C123U | ≤ -4.2
10 | A60U C63G A64C U90C C95G C103A A122G | ≤ -4.2
11 | A60U C75U C76G C108U U144C | ≤ -4.2
12 | A60U C76A A120U | -1.94
13 | A60U C76G G94A C149G | ≤ -4.2
14 | A60U C79G C99G C105U | ≤ -4.2
15 | A60U C79U G81U A91G C95G U102A | ≤ -4.2
16 | A60U C79U G84U | ≤ -4.2
17 | A60U C85A | -3.04
18 | A60U C85A C93G A150C | ≤ -4.2
19 | A60U C85G | -3.14
20 | A60U C85G G92C C116U A138G A142C | ≤ -4.2
21 | A60U C87A C95A C108A A110G | -4.07
22 | A60U C87G | ≤ -4.2
23 | A60U C87G G100C G128U G143U | ≤ -4.2
24 | A60U C87U | -1.36

Row | Variant | polymerase ribozyme fitness (log ratio)
25 | A60U C93A | -3.06
26 | A60U C96A C99U U111C G126A G128U | ≤ -4.2
27 | A60U C96G | -3.34
28 | A60U G65C | -3.98
29 | A60U G67A A91G A137U | ≤ -4.2
30 | A60U G67A C72U C87U | ≤ -4.2
31 | A60U G67A C125G G136C | ≤ -4.2
32 | A60U G70A C85U G86A | ≤ -4.2
33 | A60U G70A C85U G86A A107U U130C | ≤ -4.2
34 | A60U G80A C85A C93A | ≤ -4.2
35 | A60U G80C U104C | ≤ -4.2
36 | A60U G81U C85U G92U C93G C96A C103U G128A | ≤ -4.2
37 | A60U G84A G94C C114U A115G C123A G140A | ≤ -4.2
38 | A60U G84U C95G | 0.318
39 | A60U G86A | -2.78
40 | A60U G86A A150C | ≤ -4.2
41 | A60U G86U C108U | ≤ -4.2
42 | A60U G92A G140A | ≤ -4.2
43 | A60U G92U A138U | ≤ -4.2
44 | A60U G92U G141C | -2.82
45 | A60U G126U C129A U151G | ≤ -4.2
46 | A60U U61A G86A C93A A110C G133A | ≤ -4.2
47 | A60U U61A U77C G88U G140C U151A | ≤ -4.2
48 | A60U U78G G86A C95U G143C | ≤ -4.2

Row | Variant | polymerase ribozyme fitness (log ratio)
49 | A60U U102C C131A G143A | ≤ -4.2
50 | A60U U130A G133A | ≤ -4.2
51 | U61A A64C G71A G86A A91C C93U C118G | ≤ -4.2
52 | U61A A64U | ≤ -4.2
53 | U61A A66C C87U | ≤ -4.2
54 | U61A A66C G74A U90G A91G G133U A138C | ≤ -4.2
55 | U61A A66U C103A | ≤ -4.2
56 | U61A A73C U77A C87A | ≤ -4.2
57 | U61A A73G C93U C125A | -3.14
58 | U61A A73G G80U | ≤ -4.2
59 | U61A A73G G94U | -3
60 | U61A A89C A107U G117U U144G U151A | ≤ -4.2
61 | U61A A91C G100C A142U | ≤ -4.2
62 | U61A A91U C108G A110U | ≤ -4.2
63 | U61A A97G G136A | -0.653
64 | U61A A107C C114U G140U | ≤ -4.2
65 | U61A A137C G140A | -4.19
66 | U61A C63U C85G A119U C131A | ≤ -4.2
67 | U61A C63U G133U | ≤ -4.2
68 | U61A C72G G84A | ≤ -4.2
69 | U61A C75U G83A C96A A110G A120U U146A | ≤ -4.2
70 | U61A C76A A91U U102C | ≤ -4.2
71 | U61A C76A C79G A91C | ≤ -4.2
72 | U61A C76A C85G G140A C149G | ≤ -4.2

Row | Variant | polymerase ribozyme fitness (log ratio)
73 | U61A C76A C87U | -3.68
74 | U61A C76A G94C A110C | ≤ -4.2
75 | U61A C76U U102G U109C | ≤ -4.2
76 | U61A C79A G83C | ≤ -4.2
77 | U61A C79U A91C U139A | ≤ -4.2
78 | U61A C85A C96A A121G | ≤ -4.2
79 | U61A C85A C96G A110G | ≤ -4.2
80 | U61A C87U U102C C103G U130C | ≤ -4.2
81 | U61A C95A A97G A106G U109G U151C | ≤ -4.2
82 | U61A C96A | -1.36
83 | U61A C96G U109A | -3.32
84 | U61A C96U | -1.32
85 | U61A C105G | ≤ -4.2
86 | U61A C108A C118A | ≤ -4.2
87 | U61A C108U | -3.86
88 | U61A C114U A142C | ≤ -4.2
89 | U61A C116G G141U G143C | ≤ -4.2
90 | U61A C118A | -2
91 | U61A C132G A137U U144A | ≤ -4.2
92 | U61A G62C G67C C69A U82A C103A A142G | ≤ -4.2
93 | U61A G62U A89C G92A A107C A110G | ≤ -4.2
94 | U61A G65A A66C | ≤ -4.2
95 | U61A G65A G67C G84U C96G G141U | ≤ -4.2
96 | U61A G65A G81U C85U U102G | ≤ -4.2

Row | Variant | polymerase ribozyme fitness (log ratio)
97 | U61A G65C C85A C96G U151C | ≤ -4.2
98 | U61A G68C G84A G88U A121G G124A G141U U148C | ≤ -4.2
99 | U61A G70A G71A C103A G124U A142U | ≤ -4.2
100 | U61A G70C G80C C108U C118G | ≤ -4.2
101 | U61A G71A G83A A107U C116A | ≤ -4.2
102 | U61A G71C U78G C85A G88A U111C G140U G152A | ≤ -4.2
103 | U61A G74A C76U C87A C108U A142U | ≤ -4.2
104 | U61A G74U G81U C85G | ≤ -4.2
105 | U61A G80A | -2.08
106 | U61A G80A A89C C93U A120U C132A U146A | ≤ -4.2
107 | U61A G83C | -3.05
108 | U61A G83C U111C | ≤ -4.2
109 | U61A G84U A97U U145C | ≤ -4.2
110 | U61A G84U C114U | -3.85
111 | U61A G86A A122G | -2.67
112 | U61A G86U | -2.99
113 | U61A G88A C132A | ≤ -4.2
114 | U61A G88U G94C G141U U148A | ≤ -4.2
115 | U61A G126C | -0.89
116 | U61A G140A | ≤ -4.2
117 | U61A G143C | -2.62
118 | U61A U78G C95U A107C U148G A150U | ≤ -4.2
119 | U61A U82G G84C | ≤ -4.2
120 | U61A U90C C96A A115U G152U | ≤ -4.2

Row | Variant | polymerase ribozyme fitness (log ratio)
121 | U61C A66U C85A C131U | ≤ -4.2
122 | U61C C76A C95U C96G U134G | ≤ -4.2
123 | U61C C87A | ≤ -4.2
124 | U61C C149A | ≤ -4.2
125 | U61C G67A A89G G124U | ≤ -4.2
126 | U61C G81C C95G C123U A142G | ≤ -4.2
127 | U61C U82C C116U U134C | -2.24
128 | U61C U111A A113U A121U U144A | ≤ -4.2
129 | U61G A66U G80C C85A G92A U146C | ≤ -4.2
130 | U61G A89U C95A C99A U109C G136A U148G C149A | ≤ -4.2
131 | U61G A91C C93U C114A G126A U135G | ≤ -4.2
132 | U61G A107C | ≤ -4.2
133 | U61G C63A G68U A97U | ≤ -4.2
134 | U61G C63A G71U G80A G94U C105G C116G U139A | ≤ -4.2
135 | U61G C72A C79U A98U U102G C118U A150G | ≤ -4.2
136 | U61G C76A U78C G88C | ≤ -4.2
137 | U61G C79U C99U G126A | ≤ -4.2
138 | U61G C85A | -2.29
139 | U61G C85A G133C | -3.52
140 | U61G C85A G136C U144C | ≤ -4.2
141 | U61G C85G U101A U102G C103A U134C G143C | ≤ -4.2
142 | U61G C85U C131G C132G C149G | ≤ -4.2
143 | U61G C87A C93U U104G A119G U139A U146A | ≤ -4.2
144 | U61G C87G A115U G136A | ≤ -4.2

Row | Variant | polymerase ribozyme fitness (log ratio)
145 | U61G C87U A110U G126A G141A | ≤ -4.2
146 | U61G C87U C125G | ≤ -4.2
147 | U61G C93G A98U A138C | ≤ -4.2
148 | U61G C93G C99G C123G C125G | ≤ -4.2
149 | U61G C93U | -1.89
150 | U61G C95U | -2.07
151 | U61G C99G A138G | ≤ -4.2
152 | U61G C116A | -0.386
153 | U61G G65C G74A U77G C93U A97C C99U | ≤ -4.2
154 | U61G G71U C87U G143A | ≤ -4.2
155 | U61G G83A A89U A107G A122G | ≤ -4.2
156 | U61G G83A C103A | ≤ -4.2
157 | U61G G84A U139C U145C | ≤ -4.2
158 | U61G G94A A106C C116A G133C U146A | ≤ -4.2
159 | U61G U77A | ≤ -4.2
160 | U61G U78A C79A C87G U127G G136A | ≤ -4.2
161 | U61G U78G C132G | ≤ -4.2
162 | U61G U82G A107C A121C | ≤ -4.2
163 | U61G U104C A107G A119C A142U | ≤ -4.2
164 | G62A A64G G80U C87G | ≤ -4.2
165 | G62A A64U C129U G136C | ≤ -4.2
166 | G62A A66G G86U A121G U127C | ≤ -4.2
167 | G62A A73C C75G C87U C103G C132G U145G U146A | ≤ -4.2
